# Among all 310,000 compounds or so, about 14,000 (4.5%) showed an effect of 50% or more. Effects have a minus sign here. The list shows a part of the results.
# Target: human ether-à-go-go-related gene (hERG) potassium channel (human, UniProt Q12809)
# Experiment: primary screen, population patch clamp on CHO cells stably expressing hERG
# 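Note: peak tail current of the secondary pulse compared with the same well before compound.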
# Chain of human ether-à-go-go-related gene (hERG) potassium channel (Q12809 whole entry, looked up): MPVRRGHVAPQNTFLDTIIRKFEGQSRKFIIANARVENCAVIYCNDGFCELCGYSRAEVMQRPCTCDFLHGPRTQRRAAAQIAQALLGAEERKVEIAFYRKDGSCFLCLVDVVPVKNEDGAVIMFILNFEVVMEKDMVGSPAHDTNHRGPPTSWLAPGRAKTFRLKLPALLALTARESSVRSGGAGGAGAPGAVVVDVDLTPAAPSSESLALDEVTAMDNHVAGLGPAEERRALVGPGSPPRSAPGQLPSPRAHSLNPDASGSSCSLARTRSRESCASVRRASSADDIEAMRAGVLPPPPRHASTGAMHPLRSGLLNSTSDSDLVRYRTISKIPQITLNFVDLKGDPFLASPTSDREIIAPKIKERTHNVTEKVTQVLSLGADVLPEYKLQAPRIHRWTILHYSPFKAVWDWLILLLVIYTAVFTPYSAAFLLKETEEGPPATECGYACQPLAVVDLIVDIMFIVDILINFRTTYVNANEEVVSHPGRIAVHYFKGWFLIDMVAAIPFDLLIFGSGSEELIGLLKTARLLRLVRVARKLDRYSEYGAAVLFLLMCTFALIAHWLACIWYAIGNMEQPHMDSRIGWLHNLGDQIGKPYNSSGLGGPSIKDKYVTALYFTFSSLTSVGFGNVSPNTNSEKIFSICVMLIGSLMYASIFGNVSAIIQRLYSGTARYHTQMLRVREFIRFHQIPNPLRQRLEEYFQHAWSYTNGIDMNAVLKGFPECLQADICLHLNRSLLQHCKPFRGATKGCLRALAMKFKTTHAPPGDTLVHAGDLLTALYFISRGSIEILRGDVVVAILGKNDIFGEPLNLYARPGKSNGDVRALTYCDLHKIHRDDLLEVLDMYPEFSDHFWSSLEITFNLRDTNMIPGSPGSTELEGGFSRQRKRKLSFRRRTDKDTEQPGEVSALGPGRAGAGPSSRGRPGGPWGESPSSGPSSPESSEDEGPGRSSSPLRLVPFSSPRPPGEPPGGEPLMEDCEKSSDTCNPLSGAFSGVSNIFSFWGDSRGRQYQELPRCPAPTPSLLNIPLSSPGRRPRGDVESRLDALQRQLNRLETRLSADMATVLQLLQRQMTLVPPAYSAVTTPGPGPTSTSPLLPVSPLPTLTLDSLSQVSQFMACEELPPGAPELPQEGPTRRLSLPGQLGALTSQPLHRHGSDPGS
row,Compound,"hERG current change (%, negative = inhibition) at 10uM [%]"
1,Cc1ccc(/C=C/C(=O)OCC(=O)Nc2cccc(S(=O)(=O)N(C)C)c2)o1,-14.6
2,Cc1cc(C)cc(NC(=O)CSc2ccc(-c3ccco3)nn2)c1,-28.8
3,CC(C)c1ccc(NC(=O)[C@H](NC(=O)[C@@H]2Cc3ccccc3CN2)c2ccccc2)cc1,-6.39
4,Cc1cc(C)c(C(=O)COC(=O)c2ccc(NC(=O)CC#N)cc2)cc1C,15.5
5,Cc1ccc(S(=O)(=O)Nc2ccc(S(=O)(=O)Nc3nccs3)cc2)c([N+](=O)[O-])c1,-23.9
6,Cc1cc(C(F)F)n2ncc(C(=O)NCc3ccccc3F)c2n1,-8.91
7,C/C=C/c1ccc(OCC(=O)OCC(=O)Nc2c(C)nn(-c3ccccc3)c2C)c(OC)c1,8.24
8,CN(Cc1ccc(C(C)(C)C)cc1)C(=O)C1CSC2(C)CCC(=O)N12 (stereo not drawn),9.94
9,COC(=O)/C(C#N)=C/c1ccc(-c2ccc(S(N)(=O)=O)cc2)o1,-7.16
10,CN(C(=O)COC(=O)c1ccccc1Nc1ccccc1)c1c(N)n(Cc2ccccc2)c(=O)[nH]c1=O,21
11,Cc1ccc2c(CC(=O)Nc3ccc(F)c(S(=O)(=O)N4CCOCC4)c3)coc2c1,4.16
12,Cc1cc(C)c[n+](-c2nc3ccccc3nc2C(=C=[N-])C#N)c1,19.4
13,COc1ccc(CCN(C)Cc2c(F)cccc2F)cc1OC,-25.6
14,CCOC(=O)C/C(C)=N/NC(=O)c1cccs1,-6.1
15,CCN1CCN(C(=O)CCc2nc3ccccc3c(=O)[nH]2)CC1,24.5
16,O=C(CCCN1C(=O)[C@H]2CC=CC[C@H]2C1=O)NCc1nc(-c2ccc(Cl)cc2)no1,4.08
17,COc1cc2c(cc1Cl)C(=O)C(F)(c1ccccc1)C(=O)N2 (stereo not drawn),11.6
18,O=C(CCn1c(=S)[nH]c2ccccc2c1=O)NCCc1ccccc1,16.7
19,CC(C)(C)c1ccc(NC(=S)NCc2cccs2)cc1,4.35
20,CSc1ccccc1C(=O)NCCOc1ccccc1C,3.99
21,O=C(N/N=C\c1cccnc1)c1ccccc1O,-17.5
22,COC(=O)c1cc(Br)ccc1NC(=O)CCNC(=O)c1ccco1,-35.5
23,COC(=O)[C@@]12CCCCN1[C@H](c1ccc(-c3ccccc3)cc1)[C@H]1C(=O)N(C)C(=O)[C@H]12.O=C(O)C(F)(F)F,6.37
24,Cc1cccc(C(=O)Nc2ccc(C(=O)N3CCCCC3C)cc2)c1 (stereo not drawn),-15.8
25,COc1ccc(S(=O)(=O)Nc2ccc3c(c2)OCO3)cc1,6.47
26,CC1CCN(CCCCOc2ccccc2[N+](=O)[O-])CC1.O=C(O)C(=O)O,-26.3
27,CN(CC(=O)Nc1ccc(OC(F)(F)F)cc1)C1CCCCC1.Cl,-61.6

row,Compound,"hERG current change (%, negative = inhibition) at 10uM [%]"
1,CC(C)CN1C(=O)C(=O)N(CC(=O)c2ccc3c(c2)CCCC3)C1=O,8.25
2,Cc1ccc(C(CNS(=O)(=O)c2ccc(F)cc2C)N2CCN(C)CC2)cc1 (stereo not drawn),-57
3,CCCOc1ccc(N2CC(C(=O)NCCc3ccc(OC)c(OC)c3)CC2=O)cc1 (stereo not drawn),-6.97
4,Fc1ccccc1OCCCCN1CCCCC1,5.03
5,Brc1csc2ncccc12,1.64
6,NC(=O)[C@@H]1CC2(CC(c3cccc(NC(=O)COc4ccc(Cl)cc4)c3)=NO2)CN1C(=O)COc1ccc(Cl)cc1 (stereo partly drawn),-29.4
7,COc1cc(NC(=O)c2ccc(F)cc2)c(OC)cc1Cl,3
8,Cc1nc(NCc2ccccc2)c(C(N)=O)c2c1COC(C)(C)C2,-3.89
9,Cc1ccccc1/C=N/NC(=O)Cc1ccc(Cl)cc1,17
10,Cc1oc(-c2cc(F)ccc2F)nc1CN1CCN(c2cnccn2)CC1,-28.2
11,N#CC1=C(N)SC(N)=C(C#N)C1C1C=CCCC1 (stereo not drawn),-14.4
12,CCn1c(SCC(=O)Nc2ccc3c(c2)OCCO3)nnc1-c1ccncc1,0.979
13,Cc1onc(-c2c(Cl)cccc2Cl)c1C(=O)O/N=C(\C#N)c1c(Cl)cccc1Cl,9.4
14,CC1=CN2C(=NC(=O)CC2(C)C(=O)N(CC(=O)NC2CCCC2)Cc2ccccc2)C=C1 (stereo not drawn),9.32
15,Cc1ccc(-n2nc(-c3ccc(OC(F)(F)F)cc3)cc2N)cc1C,-0.351
16,CCOc1cc(/C=C/c2ccc3cccc([N+](=O)[O-])c3n2)ccc1OCC(=O)N(C)C,-33.4
17,O=C(CCc1nnc(C2(c3ccc(Cl)cc3)CCC2)o1)N1CCCC1,-4.23
18,COc1ccc(CCN(C)C(=O)COc2ccc(C(=O)c3ccccc3)cc2)cc1OC,-38.7
19,Cc1ccc2nc(NNC(=O)c3ccc(S(=O)(=O)N4CCc5ccccc5C4)cc3)sc2c1,10.3
20,Cc1cccc(C(=O)NC(=S)N2CCN(C)CC2)c1,-8.42
21,CS(=O)(=O)N1CCC(C(=O)Nc2ccc(Cl)c(Cl)c2)CC1,0.0491
22,CC(=O)c1cc2c(cc1NS(=O)(=O)c1ccccc1)OCO2,-4.28
23,CC1CCN(C(=O)c2cc3nc(C4CC4)cc(C(F)(F)F)n3n2)CC1,-27.3
24,CN(C(=O)CCN1C(=O)C(C)(C)Nc2ccccc21)c1ccccc1,5.28
25,CCC1=Nc2cc(C(=O)NCc3ccco3)ccc2Sc2ccc(Cl)cc21,17.6
26,CC1C(=O)N2CCCc3cc(S(=O)(=O)N(C)Cc4ccccc4)cc1c32 (stereo not drawn),-14.7
27,Cc1ccccc1CC1(CO)CCCN(C(=O)CCC(=O)c2ccccc2)C1 (stereo not drawn),-16.7

# — paper PMC4336329 (PLoS ONE, 2015)
